# Data as given in the supplement of paper PMC12632987.
# Whole data set: some 1,800 sequences, median “median log2 fold change of GCK-ALFA target abundance (FLAG IP / Myc IP barcode read proportion)” near 0.14, cut for the lowest 2% near -0.84. Some of the results follow.
# B1: traf2_out_11_169_776 (protein)
# chain: EEAEKNRKINDKALELNDEAKKELEKEALALAKEEGLDVEEIKKIFEENKNKSLSAVAAALIEYFKSKGKEDAAKKILEKYEELKEKINKESSEFIKSLE
# B2: traf2_out_11_155_692 (protein)
# chain: EKKRELNNELVDEMTEIEDKLKEEVLKIVREAAAAHPEHKAELEALIASSKGLSGRSFARQAAQLFKRLGLEEEAARVEELLEKAQKEMNEAYKKIEAKI
# B3: traf2_out_20_3_2107 (protein)
# chain: KELEEELEKELEEAIKLLEEAAKLADEETAKRLEELRKRVEASRELPYTDRLVALSEVRREVLALAQEAEAAGKEELAKVLEEAADELNKAMNLLMKIIE
# B4: traf2_out_11_104_644 (protein)
# chain: LTKEQARELNDFAMEANDKAKELLAEVAAFLEERGHEEEAARVKAALAHPGAGASTFRNLLEELLPKLDEEAKEKAEEAIEKIEELIKEVSKKLNELEKK
# B5: traf2_out_16_104_1379 (protein)
# chain: EEERRKEFEEIIERLREIAERAGRLANEIYKLMETASPEEKKKLSDLLVEVSELRRRALQAAEEAERALKEGGDLEEFRKRLEELEKRLKELEERVKKLK
# B6: traf2_out_13_95_1138 (protein)
# chain: SKETAEKIMEVADKMLEKVEEILNELLEIAKKKGKLEKEIEEVLHTARYRSINEAIHLLKELSKKYPEFKEELDKAIKEIEEIRREAGREVAKILKEAKE
# B7: traf2_out_16_104_1412 (protein)
# chain: AAAKDAAFEAIIAELNAIADRAGRLANRVYNLMLTASPEDRKKLSDLLVKASELRREALAAAQAVEEGRKAGADLAEARATLAALTARLEALEKELKALE
# B8: traf2_out_18_117_1790 (protein)
# chain: SRREELIKELEEIAERLGRAASRLGKAVLENWDKLTQEEKSEAMDVLADLTEVRREALELIHKIKTENIPVEEAEKRLKELRERAEKAIKAAEERIKKIE
# B9: traf2_out_17_162_1555 (protein)
# chain: MELEERLEELKEELERLEKELKRLEEKLKKLEELSKEELTDLLVEASELRRRALELALELEELREEVGEEEMEELIERARRLAEEFQRIANEIYKELLKK
# B10: traf2_out_15_48_1339 (protein)
# chain: SVEELREVAREIADEIDAEKDRIAEELEKLLPKAKPEVQKLLKEAIDAAKNGRGNNTVIALLDELEPKLDPEQQKIVTELRDRLRAVNRAASRRMAEVLK
# B11: traf2_out_3_89_2300 (protein)
# chain: MEEEEKKIEEAKKRAEAYAKGFEKSLTFVAKEMIKDGHSLETLEGVANSAKTALAEVFRESLKEEGLSEEKIKELVEEFTKKLDEIVKKVIEEAKKKRKE
# B12: traf2_out_3_89_2290 (protein)
# chain: MEERERKIEEARERAERYVRGFEKNARRVMKEMLAEGHSLETLEGVLKAARTAIVEVFRETLKEEGIDEETRAELVAELEERLDAIVERVVAEAKERRAA
# B13: traf2_out_20_3_2068 (protein)
# chain: EELEKELEEALEKALALLKKAAALADPETAAELDALIKELKASKELSVSDRLVAVSAVRRRVLRLAEEAEAAGDAELAAVLNKAADALNRAAQLLYQILQ
# B14: traf2_out_11_169_884 (protein)
# chain: EEAEKNREFNDFALELNDEAKEKLLEFAKELAKKLGLDVEEVEKIYEENKNKSLSYLASKLIEYFRSKGKEDAAKAVEEKYEELKEEINKKGTEKMKELE
# B15: traf2_out_11_104_645 (protein)
# chain: LTREQAREFNDFAMKKRDEALKLAKEVAKFLKEKGHEEEAAEVEKALAHPGTGPSSLKNLLEELLPKLDEESKKKAEKAIEEIEKLIKEASKKLNELEEK
# B16: traf2_out_20_3_2245 (protein)
# chain: EELREKAKEYLEKARELLKKVEPLLKPEDAAELKELLEKAEEAFETDLTDALVYLSELRRKALELAEEARAAGDEETAALLEELAEAVGKAANYIYKIVE
# B17: traf2_out_13_95_1098 (protein)
# chain: SAEVAKKIMEIADEMLDKVEEILEELLKKAKEAGKLEKEVQEALDLAKYRSINEAIHKLEELAKKHPEFKEEYNEAIEKIKALRREAGRKVAEILKEEEE
# B18: traf2_out_8_15_2546 (protein)
# chain: SSFESNVARAKRALEKAGYTEESVLRNVRAMMRHTLRTTKELIERGEVEEARALSNSMFSIARAMLEAYAELHPEAKEAMEKALEEVDKVEEEVKKLLEE
# B19: traf2_out_15_48_1343 (protein)
# chain: STEELRKVASEIADEIDAKKDEIAKRLEELIPKAPPEDAALLTELRDLAKSGATQRDVLAKMDEVIPKLSPEFAAKVTELREELEEVLREASKRMNEVLK
# Biological target: T1, TRAF2, Q12933
# T1 chain: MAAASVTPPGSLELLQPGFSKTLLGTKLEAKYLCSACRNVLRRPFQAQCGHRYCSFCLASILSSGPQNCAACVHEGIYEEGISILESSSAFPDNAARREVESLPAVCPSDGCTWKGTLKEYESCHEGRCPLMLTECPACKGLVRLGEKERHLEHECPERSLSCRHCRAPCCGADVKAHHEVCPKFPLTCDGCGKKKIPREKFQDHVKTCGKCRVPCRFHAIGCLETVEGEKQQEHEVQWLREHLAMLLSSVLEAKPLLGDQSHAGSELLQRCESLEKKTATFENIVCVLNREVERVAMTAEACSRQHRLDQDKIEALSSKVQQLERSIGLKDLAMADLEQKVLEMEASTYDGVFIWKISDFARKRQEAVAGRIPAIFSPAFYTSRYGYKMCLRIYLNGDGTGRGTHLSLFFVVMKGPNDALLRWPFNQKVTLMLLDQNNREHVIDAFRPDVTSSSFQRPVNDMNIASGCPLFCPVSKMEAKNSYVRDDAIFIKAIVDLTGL
# Test: median log2 fold change of GCK-ALFA target abundance (FLAG IP / Myc IP barcode read proportion) (log2 ratio); each designed protein is fused to an ALFA-tag nanobody in HEK293 cells to bring the named protein to FLAG-tagged glucokinase (GCK); Myc marks an untargeted standard; higher = target protein stabilised (more abundant)
# Conditions: target protein: 3xFLAG-MCP-GCK-ALFA reporter; HEK293 landing pad (RPLP)
# Procedure, shortened: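 The readout is target abundance, the per-binder median log2 ratio of FLAG to Myc barcode read proportions. It came from HEK293 landing-pad cells carrying a recombined ALFA-nanobody-fused binder library, induced with 2 μg mL^−1 doxycycline and transfected with a plasmid for a FLAG-tagged target and a Myc-tagged standard. After 48 h, lysates were immunoprecipitated with anti-FLAG and anti-Myc, and circular RNA barcodes were reverse transcribed, amplified and sequenced. Each barcode needed a proportion of at least 10^−7 in both replicates and each binder at least 3 barcodes per replicate, a pseudocount of 10^−6 was added, and the replicates were pooled.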
row,Binder,median log2 fold change
1,B1,0.418
2,B2,0.102
3,B3,0.327
4,B4,0.393
5,B5,0.102
6,B6,-0.826
7,B7,0.118
8,B8,-0.104
9,B9,0.252
10,B10,0.217
11,B11,-0.622
12,B12,-0.754
13,B13,-0.0614
14,B14,0.298
15,B15,0.284
16,B16,0.264
17,B17,-0.841
18,B18,-0.64
19,B19,0.156
